Read counts are not given, so values of variants with three or more changes are uncertain.
B1: LINE1-mini (parent)
chain: GGCAGAGCUCAACACAGCGUGGCAAAGUGGCUGUGGCUAGACUGCC

Variants of: B1
Test: self-cleavage, relative activity (ratio to wild type); higher = more cleavage; in vitro, sequencing; the parent is a self-cleaving ribozyme

Variant | self-cleavage
GGCAGAGCUCAUCACAGCGUGUCAAAGCGGCUGUGUCUAGACUGCC | 0
GGCAGAGCUCAUCACAGCGUGGCAAAAUGGCUGUGGCUUGACUGCC | 0.13
GGCAGAGCUCAUCACAGCGUGGCAAAAUGGCUGUGGCUAGACUACC | 0.23
GGCAGAGCUCAUCACAGCGUGGCAAAGUGACUGUGGAAAGACUGCC | 0.04
GGCAGAGCUCAUCACAGCGUGGCAAAGUGGCUCUGGCUAGACUGCU | 0.01
GGCAGAGCUCAUCACAGCGUUGCAAAGUGGCUGUGGCUAGACUGAC | 0.26
GGCAGAGCUCAUCACAGCGUUGCAAAGUGGCUCUGGCUAGACUGCC | 0.02
GGCAGAGCUCAUCACAGCGUGGCAAAGUGCCUGUGAAUAGACUGCC | 0.02
GGCAGAGCUCAUCACAGCGUGCCAAAGUGGCUGAGGCUAGACUGCC | 0
GGCAGAGCUCAUCACAGCGUGGCAAAGUCGCUGUGGCUAGCCUCGC | 0.06
GGCAGAGCUCAUCACAGCGGGGCAAAGUCGCUGUCGCUAAACUGCC | 0.05
GGCAGAGCUCAUCACAGCGAGGCAAAGUGGCUGUGGCAAGGUUGCC | 0.02
GGCAGAGCUCAUCACAGCGUGUCAAAGUGGCUGUGGCUAGACUGUC | 0.2
GGCAGAGCUCAUCACAGCGCAGCAAAGUGGCCGUGGCUAGACUGCC | 0.27
GGCAGAGCUCAUCACAGCGUGGCAAAGAGGCGGUGGCUAGACUGCC | 0.06
GGCAGAGCUCAUCACAGCGUGGCAAAGUAGCUGUGGCUAUACUGCC | 0.06
GGCAGAGCUCAUCACAGCGUGGCAAAGUCGCUGUCGCUAGACUGCC | 0.07
GGCAGAGCUCAUCACAGCGUGGCAAAAUGGCUCUGGCUAGACUGCC | 0.01
GGCAGAGCUCAUCACAGCGUGGCAAAUUGGCUGUGGCCAGACUGCC | 0.05

Variant | self-cleavage
GGCAGAGCUCAUCACAGCGUUGCAAAGUGGCUGUGGCAAGACUGCC | 0.1
GGCAGAGCUCAUCACAGCGUGUCAAAGUGGCUGGGGCUAGACUGCC | 0.01
GGCAGAGCUCAUCACAGCGUGGCAAAGUGUCUGUGGCUACACUGCC | 0.14
GGCAGAGCUCAUCACAGCGUGUCAAAGUGGCUUUGAAUAGACUGCC | 0.07
GGCAGAGCUCAUCACAGCGGGCAAAAGUGGCUGUGGCUAGACUGCC | 0.29
GGCAGAGCUCAUCACAGCGUGGCAAAGUUGCUGUGGCGAGACUGCC | 0.02
GGCAGAGCUCAUCACAGCGAGGCGAAGUGGCUGUGACUAGACUGCC | 0.01
GGCAGAGCUCAUCACAGCGUGGCAAAUUGGCUGUGGCUAGAGUGCC | 0.01
GGCAGAGCUCAUCACAGCGUGGCAAAGUCGCUGUGGCUAAACUGCC | 0.06
GGCAGAGCUCAUCACAGCGUGCCAAAGUGGCUGUGGUUAGUCUGCC | 0
GGCAGAGCUCAUCACAGCGUGUCAAAGUCGCUGUGGCUAGACUGCC | 0.05
GGCAGAGCUCAUCACAGCGUGUCAAAGUGGCUGUGGCUAUACUGCC | 0.08
GGCAGAGCUCAUCACAGCGUGACAAAGUGGCCGUGGCUAGACUGCC | 0.07
GGCAGAGCUCAUCACAGCGUGGCAAAGUGGCAGUGGUUAGACUGCC | 0.03
GGCAGAGCUCAUCACAGCGUGGCAAAGUCGUUGUGGCUAGACUGCC | 0.2
GGCAGAGCUCAUCACAGCGUGGCAAAGGCGCUGUGGCCAGACUGCA | 0.02
GGCAGAGCUCAUCACAGCGUGGCAAAGUGGCUGUAGCUAGACUUCC | 0.03
GGCAGAGCUCAUCACAGCGUGGCAAAGUGGCCGUGGCUAGACUCUC | 0.02
GGCAGAGCUCAUCACAGCGUGGCAAAGGUGCUGUGGCUGGCCUGCC | 0.02

Variant | self-cleavage
GGCAGAGCUCAUCACAGCGUGGCAAAGUGCUUGUGGCUAGACUGCC | 0.48
GGCAGAGCUCAUCACAGCGUGGCAAAGUGCCUGUGGCUAGACUGCU | 1
GGCAGAGCUCAUCACAGCGUGGCAAACUGGCUGUCGCUAGAGUGCC | 0.01
GGCAGAGCUCAUCACAGCGAGGCAAAGUGGCUGUGGCUAAACUGCC | 0.1
GGCAGAGCUCAUCACAGCGUGACAAAGUUGCUGUGGCUAGACUGCC | 0.31
GGCAGAGCUCAUCACAGCGUGGCAAAGUGUCAGUGGCUGGGCUGCC | 0.01
GGCAGAGCUCAUCACAGCGUGGCAAAAUGGCUGGGGCUUGACUGCC | 0.24
GGCAGAGCUCAUCACAGCGUGGCAAAGUGGCUCUGGAUGCGCUGCC | 0.01
GGCAGAGCUCAUCACAGCGUGGCAAAGGGGCUGUGGUUAGACUGCC | 0.01
GGCAGAGCUCAUCACAGCGUGGCAAAGUAGCUGGCACUACACUGUC | 0.03
GGCAGAGCUCAUCACAGCGCGGCACAGUGGAUGUGGCUAGACUACC | 0
GGCAGAGCUCAUCACAGCGUGCCUAAGUGGCUGUGUCUAGACUGCC | 0.06
GGCAGAGCUCAUCACAGCGUGGCAAAGUAGCUACGGCUAGAUUGCC | 0.05
GGCAGAGCUCAUCACAGCGUGGCAAAGAGGCUGUGGAUAGACAGCU | 0.01
GGCAGAGCUCAUCACAGCGUGGCAAACUGCCUGAGGCUAGAGUGCC | 0.02
GGCAGAGCUCAUCACAGCGUUGCAAACUGGCUGUGGCUAGACUGCC | 0.16
GGCAGAGCUCAUCACAGCGUGGCAAAGUCGCUGUGGCUAGUCUGCC | 0.02
GGCAGAGCUCAUCACAGCGCGGCAAUGUGGCUGUGGCUAGACUGCC | 0.06

Source: the RNAGym collection of RNA variant scans (doi:10.7554/elife.90254)
